# According to article PMC12136788:
# The list shows a part of the results.
# B1: ENSG00000136451:be:win_2001|3pUTR|ENSG00000136451|bound_else_gene|NA|bound_elsewhere_windowed (ssRNA)
# RNA: GGGAGUUCUACAGUCCGACGAUCGCUAGUGUAGAAUUGUCUGUGUUUAUUGUUUUUAUGAGUAAAUACAUGCAUUGUCAUAAUAAAAUGCAUUUCAGAGAAUAUGCAUUUUACCUUUGGGAAUAUGUUAAUUUCAGGCAGCAUCAACAGAGGAUUGAGCAUCA
# B2: chr15:52550141:52550321:-|3pUTR|ENSG00000128989|msi1|total|mutant (ssRNA)
# RNA: GGGAGUUCUACAGUCCGACGAUCAGAUGUCACUUCCGUAAAAUACCAAUUCCGUUUUACUUGUGGCUUAUCCCGUCCGAACUCCGCAGACUUUACUGGGACAAGUUUACUGCUCUUGCCGGAGCUCCUCUCACAAGCCGUUGUCAACAGAGGAUUGAGCAUCA
# B3: chr5:90513983:90514084:+|3pUTR|ENSG00000113356|unk|FALSE|unique (ssRNA)
# RNA: GGGAGUUCUACAGUCCGACGAUCAAAUACACUGAAGAUAAAGGUUAUUUCUUUUUUUAGCUUUGAAUUUGUCAUGACCAUUUUAGUCUUGCAGAUAGCAGGGCAGCCCCUUGGGGCAAGGAUUUACUCUGGGAGGUACCGUUACAACAGAGGAUUGAGCAUCA
# B4: chr2:25738620:25738721:-|3pUTR|ENSG00000143970|unk|FALSE|unique (ssRNA)
# RNA: GGGAGUUCUACAGUCCGACGAUCAUACAUAUUAAUGACCUGACAGUUAACAUUCUGUUGUUUAUUAUUGCCUUUCUCCACCUUAGAGAGCCAUAAAUAACUCUCUGGUGAAGUGAUUUGCUAUAAUGGGGGUGAGGAGUGGGGCAACAGAGGAUUGAGCAUCA
# B5: ENSG00000174437:stop:overlap|stop_codon|ENSG00000174437|stop_codon|NA|stop_codon (ssRNA)
# RNA: GGGAGUUCUACAGUCCGACGAUCAUGAGACGCUCAAGUUUGUGGCCCGCAACUACCUGGAACCUGUUCUUAGCUCAGAACUUUAGUUGUACUCUGCUUGAGGGGAAGAAGGCUCCUGCUCUGCUGUCAAUACUGGAGUAACCGCAACAGAGGAUUGAGCAUCA
# B6: chr4:54297753:54297953:+|3pUTR|ENSG00000134853|msi1|total|mutant (ssRNA)
# RNA: GGGAGUUCUACAGUCCGACGAUCUUUUUAUGAUGACAAUCAAAGCCGGCCUGAGAAACACUAUUUGUGACUUUUUAAACGAUCCGUGAUGUCCUUAAAAUGUGGUCUGCCAAUCUGUACAAAAUGGUCCUAUUUUUGUGAAGACAACAGAGGAUUGAGCAUCA
# B7: chr7:124031896:124032004:-|CDS|ENSG00000234224|unk|FALSE|unique (ssRNA)
# RNA: GGGAGUUCUACAGUCCGACGAUCUACCCGCUCAAUUUUAUGGGCCUCAUCACCCUGAUGUAUUUACCUGGCUGGAUAUUCCUUAGUGUGUACCAGGACCUAAUUUCCAACGUGUUGUGGAGGGUGCAGUACGUACCAGCUAACCAACAGAGGAUUGAGCAUCA
# B8: chr1:94529602:94529703:-|3pUTR|ENSG00000117525|msi1|FALSE|unique (ssRNA)
# RNA: GGGAGUUCUACAGUCCGACGAUCUGGAAGGAAAUUGGGUGCAUUUCUAGGACUUUUCUAACAUAUGUCUAUAAUAUAGUGUUUAGGUUCUUUUUUUUUUCAGGAAUACAUUUGGAAAUUCAAAACAAUUGGCAAACUUUGUAUCAACAGAGGAUUGAGCAUCA
# B9: chr22:21448335:21448436:+|3pUTR|ENSG00000169635|unk|FALSE|bound_elsewhere (ssRNA)
# RNA: GGGAGUUCUACAGUCCGACGAUCGCAGUCCUGGCCCCCGGCCACUGUCUCGGGGCCCACCUCUCGCCCCUCAUCUUGGUAAUUAGCCAGCCUCAGAUACUUCUGUGGGCCCUGAAGUGGGCUCUCAAGGUCAGACCAAGGUUGCAACAGAGGAUUGAGCAUCA
# B10: chr7:108502517:108502634:-|CDS|ENSG00000135241|unk|total|mutant (ssRNA)
# RNA: GGGAGUUCUACAGUCCGACGAUCAUUAUUCCAUAUUUAUUACGACUGAGACAAAUUAAGGAUGAAACUCUUCAGGCUGCAGUCCGAGAAAUUUUGGCCCUAAUUGGCUAUGUGGAUCCAGUGAAAGGGAGAGGAAUCCGAAUUCAACAGAGGAUUGAGCAUCA
# B11: chr9:128633378:128633479:+|3pUTR|ENSG00000197694|msi1|total|mutant (ssRNA)
# RNA: GGGAGUUCUACAGUCCGACGAUCCUUGCUGCAUGUCCGCUCCUCUGUGUGCUCUCACUUUCCACUGUAACCUUAAGCCUGCUCCGCUUGGAAUAAGACUCCGGAGAAAAUGGUGCUUCACUAACCCGCUUCCGGUCCAGUCACCAACAGAGGAUUGAGCAUCA
# B12: chr8:103229222:103229323:+|3pUTR|ENSG00000164929|unk|FALSE|unique (ssRNA)
# RNA: GGGAGUUCUACAGUCCGACGAUCUAAUUUUCUAGUAUGUCUUGAAACAUGUUCAUCUGGAAGUAUUUUCCUCCAAAGUAAUGUAGCAUGAUUUUUCAAGGAUUGUUAACAUGCCUGGGAUUGGGAAAGAUAGGACUAAAGUUGCAACAGAGGAUUGAGCAUCA
# B13: chr16:18841627:18841728:-|CDS|ENSG00000157106|msi1|total|mutant (ssRNA)
# RNA: GGGAGUUCUACAGUCCGACGAUCUACAAUUAAUCGCCAAGAAACACCCCGGUUCCAUGCUCGACACUAUUCUGUAACACCACCCGGAACAAGAUCAGGACUAAUCCAGUGGGCCGAUGGAGCCACACCCUUAUUUGGUCUUUACAACAGAGGAUUGAGCAUCA
# B14: chr5:6668475:6668576:+|3pUTR|ENSG00000145545|unk|FALSE|unique (ssRNA)
# RNA: GGGAGUUCUACAGUCCGACGAUCAUUUUUUCUAAUUUCAAAUUUACCUCUUUUGGCUAUGUCUUGCCAAGUGUGUAUGAGACUAGACUUUACAACUGUCUUUGAUGGCAUUUUCAGAACAAUAAAUGUCACAAUCCCUUCUAUCAACAGAGGAUUGAGCAUCA
# Molecular target: MSI1 full-length (mouse, UniProt Q61474 1-362)
# Chain of UniProt Q61474 (Q61474 whole entry): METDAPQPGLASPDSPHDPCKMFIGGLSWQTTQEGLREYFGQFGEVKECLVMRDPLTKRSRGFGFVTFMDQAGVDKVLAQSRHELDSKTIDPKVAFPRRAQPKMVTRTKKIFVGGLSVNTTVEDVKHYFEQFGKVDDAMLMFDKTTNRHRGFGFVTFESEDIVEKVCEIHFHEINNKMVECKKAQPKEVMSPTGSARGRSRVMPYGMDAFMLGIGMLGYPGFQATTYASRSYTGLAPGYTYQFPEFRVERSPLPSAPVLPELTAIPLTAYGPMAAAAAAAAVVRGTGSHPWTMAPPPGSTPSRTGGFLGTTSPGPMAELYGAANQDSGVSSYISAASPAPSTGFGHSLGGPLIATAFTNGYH
# Assay: nsRBNS (natural sequence RNA bind-n-seq); RBNS binding buffer (assumed for nsRBNS): 25 mM Tris pH 7.5, 150 mM KCl, 3 mM MgCl2, 0.01% Triton X-100, 500 ug/ml BSA, 20 U/ml SUPERase-In, 4 C; UNK is unkempt and MSI1 is Musashi-1; names of the RNAs are library labels; protein concentration not given here; high values mean tight binding
row,Binder,binding signal
1,B1,1.18 enrichment R
2,B2,0.351 enrichment R
3,B3,0.573 enrichment R
4,B4,0.474 enrichment R
5,B5,0.381 enrichment R
6,B6,0.286 enrichment R
7,B7,0.531 enrichment R
8,B8,9.56 enrichment R
9,B9,0.557 enrichment R
10,B10,0.499 enrichment R
11,B11,0.462 enrichment R
12,B12,0.402 enrichment R
13,B13,0.505 enrichment R
14,B14,0.3 enrichment R
